Assay results published in PubChem BioAssay AID1460 (National Center for Advancing Translational Sciences (NCATS), 2008).
“And” between values parts separate entries of the source, which are not always exact repeats. Equal values may be shown once. Out of some 270,000 compounds screened, about 5,800 (2.1%) were called active. The shares of active, inactive and inconclusive entries below differ from those in the screen. Calls follow the shape of the dose curve; as a rule, active = well fitted inhibition curve with a large enough effect; inconclusive = small, poorly fitted or top-dose-only effect; inactive = flat fitted curve, though single readings scatter. A potency beside an inconclusive call is a rough fit, not a confirmed value.

Biological target: Microtubule-associated protein tau (Homo sapiens) (UniProt P10636)
UniProt P10636, sequence (P10636 whole entry, looked up): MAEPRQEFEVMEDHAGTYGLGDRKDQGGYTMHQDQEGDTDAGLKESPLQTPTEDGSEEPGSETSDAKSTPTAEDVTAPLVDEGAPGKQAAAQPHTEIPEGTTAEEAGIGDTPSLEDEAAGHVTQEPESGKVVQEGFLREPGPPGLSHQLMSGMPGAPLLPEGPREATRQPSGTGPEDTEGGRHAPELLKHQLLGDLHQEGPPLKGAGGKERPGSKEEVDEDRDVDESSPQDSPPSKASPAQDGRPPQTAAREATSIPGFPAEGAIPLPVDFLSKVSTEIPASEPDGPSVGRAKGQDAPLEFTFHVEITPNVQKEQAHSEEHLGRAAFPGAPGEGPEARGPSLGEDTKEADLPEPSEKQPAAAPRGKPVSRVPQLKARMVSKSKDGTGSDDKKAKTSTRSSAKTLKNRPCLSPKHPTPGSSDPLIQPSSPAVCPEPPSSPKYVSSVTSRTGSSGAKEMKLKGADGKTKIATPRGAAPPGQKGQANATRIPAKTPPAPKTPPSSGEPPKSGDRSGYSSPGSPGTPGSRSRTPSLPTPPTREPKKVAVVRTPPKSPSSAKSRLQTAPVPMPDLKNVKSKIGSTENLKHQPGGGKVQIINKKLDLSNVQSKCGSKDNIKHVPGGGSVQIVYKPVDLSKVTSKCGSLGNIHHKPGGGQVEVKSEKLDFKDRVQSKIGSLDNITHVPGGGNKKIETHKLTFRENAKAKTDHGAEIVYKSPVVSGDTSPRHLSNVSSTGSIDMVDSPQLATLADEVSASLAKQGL
Experiment: qHTS for Inhibitors of Tau Fibril Formation, Thioflavin T Binding; also: nearly all actives have a fitted effect of over 55% in size
Conditions: recombinant tau K18 P301L, heparin-induced fibrillization, ThT fluorescence; series mostly up to 57.4 µM
Outline: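 Fibril formation assay: tau K18 P301L at 15 uM with trace Alexa 594 label, heparin inducer 20 uM, pH 7 sodium acetate buffer, 37 C for 6 hr; endpoint ThT signal.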
Potency is read from the fitted curve at half-maximal effect; tags tell the direction and shape of the fitted curve.

Row | SMILES | Potency
1 | O=C(C[n+]1cccc(CNC(=O)c2ccc(OC(F)F)cc2)c1)Nc1cc(C(F)(F)F)ccc1Cl | inconclusive: 20 µM [inhibitor, single point]
2 | Cc1ccc(NC(=O)c2ccc([N+](=O)[O-])o2)cc1C | inconclusive: 14.1 µM [inhibitor, partial curve]
3 | COC(=O)C1CCN(C(c2ccccc2Cl)c2sc3nc(-c4ccco4)nn3c2O)CC1 (configuration not stated) | inactive
4 | COc1ccc(OCCSc2nnc(-c3ccc(OC)cc3)n2N)cc1 | inconclusive: 0.562 µM [inhibitor, full curve]
5 | Cn1c(=O)c2c(nc(CN3CCC(C(N)=O)CC3)n2Cc2ccccc2Cl)n(C)c1=O | inactive
6 | CCCCOc1ccc(C(=O)Nc2onc3c2CCCC3)cc1 | inconclusive: 2.82 µM [inhibitor, partial curve]
7 | Cc1nc2ccn(Cc3cccnc3)c(=O)c2cc1C(=O)N1CCN(c2ccccc2)CC1 | inactive
8 | CCc1ccc2nc(/N=C(\N)NC(=O)c3ccccc3)nc(C)c2c1 | inconclusive: 2.51 µM [inhibitor, partial curve]
9 | COC(=O)c1sccc1S(=O)(=O)N(CC(=O)NCc1ccccc1)c1ccc(C)cc1 | inactive
10 | COCCNC(=O)CSc1nnc(NC(=O)Nc2ccc(C)cc2)s1 | inactive
11 | O=C(NN1C(=O)c2ccccc2NC1c1ccc([N+](=O)[O-])o1)c1ccc(Br)cc1 (configuration not stated) | inconclusive: 0.708 µM [inhibitor, full curve]
12 | CCOC(=O)c1cccc(NC(=O)c2ccc3snnc3c2)c1 | inactive
13 | Cc1noc(NC(=O)c2ccccc2Cl)c1C#N | inactive
14 | COC(=O)c1cccc(COC(=O)c2ccc(CS(=O)(=O)c3ccc(C)cc3)cc2)c1 | inconclusive: 11.2 µM [inhibitor, partial curve, poor fit]
15 | COCCCNc1oc(COc2ccc(Cl)cc2Cl)nc1C#N | inconclusive: 25.1 µM [inhibitor, single point]
16 | COc1cc2c(cc1NC(=S)Nc1cccc(C)c1)oc1ccccc12 | inconclusive: 8.91 µM [inhibitor, partial curve]
17 | COc1ccc(-c2noc(COc3ccc4ccccc4c3Br)n2)cc1OC | inconclusive: 1.78 µM [inhibitor, full curve]
18 | O=C(Nc1ccc2c(c1)OCCO2)N1CCN(c2ccc(F)cc2)CC1 | inconclusive: 11.2 µM [inhibitor, partial curve]
19 | O=C1S/C(=C\C=C\c2ccco2)C(=O)N1c1ccc(O)cc1 | active: 14.1 µM
20 | CSC1=NSC2=NC(=O)/C(=C/c3coc4ccc(O)cc4c3=O)C(=N)N12 | active: 22.4 µM
21 | CCOC(=O)c1c(C)oc2ccc(OCc3cc(C(=O)OC)oc3C)cc12 | inconclusive: 31.6 µM [inhibitor, partial curve]
22 | COc1cccc2sc(Nc3nc(C)c(C(C)=O)s3)nc12 | inconclusive: 3.98 µM [inhibitor, full curve]
23 | O=C(Nc1cccc(/C=C/c2nc3ccccc3c(=O)[nH]2)c1)c1ccccc1Cl | inconclusive: 3.55 µM [inhibitor, single point]
24 | C=CCNC(=S)Nc1ccccc1 | inactive

Row | SMILES | Potency
25 | CC(CCc1ccccc1)NC(=O)C(=O)N1CCOCC1 (configuration not stated) | inactive
26 | COc1ccc(C2C3=C(Nc4ncnn42)c2ccccc2CC3)cc1OC (configuration not stated) | inconclusive: 28.2 µM [inhibitor, single point]
27 | CN(C)Cc1ccccc1-c1cc(-n2ccnc2)ncn1 | inconclusive: 15.8 µM [inhibitor, partial curve, poor fit]
28 | COc1ccccc1NC1=NCC(=O)N1Cc1ccccc1 | inactive
29 | COc1cccc(-c2nc(SCc3ccc(C)cc3)n3[nH]c(=O)cc3n2)c1 | inconclusive: 3.98 µM [inhibitor, single point]
30 | CC(C)c1nnc(NC(=O)C2CCCCC2)s1 | inactive
31 | CN(C)c1ccc(NC(N)=S)cc1 | inconclusive: 31.6 µM [inhibitor, partial curve]
32 | Cc1ccc(NC(=S)Nc2ccc3nc(-c4ccccn4)c(-c4ccccn4)nc3c2)cc1C | inconclusive: 17.8 µM [inhibitor, partial curve]
33 | COc1cccc(CNC23CC4CC(CC(C4)C2)C3)c1OCc1ccccc1 | inactive
34 | C=CCn1c(CNc2ccc(C)cc2)nnc1SCC(=O)N/N=C/c1ccc(O)cc1 | inconclusive: 28.2 µM [inhibitor, single point]
35 | COC(=O)c1c(SCC(=O)Nc2cccc(Cl)c2C)[nH]c2ccccc2c1=O | active: 15.8 µM
36 | COc1ccc(CN=C2NN=C(c3ccccc3)CS2)cc1 | inconclusive: 20 µM [inhibitor, partial curve]
37 | CC(=O)Nc1ccc(NC(=O)c2cnn(-c3ccccc3)c2C2CCN(C(=O)OC(C)(C)C)CC2)cc1 | inconclusive: 8.91 µM [inhibitor, partial curve, poor fit]
38 | Cc1ccc(C)c(N2CCN(C(=O)Cn3c(=O)[nH]c4ccsc4c3=O)CC2)c1 | inconclusive: 11.2 µM [inhibitor, partial curve]
39 | COc1cccc(C(=O)Oc2c(CN3CCOCC3)cc(Cl)c3cccnc23)c1 | inactive
40 | O=S(=O)(Nc1cccc(F)c1)c1ccc2[nH]c3c(c2c1)CCCCC3 | inconclusive: 28.2 µM [inhibitor, single point]
41 | Cc1c(C#N)c(N=CN(C)C)c(C(=O)c2ccc(Br)cc2)n1-c1ccccc1 | inactive
42 | N/C(=N\OC(=O)c1ccccc1Cl)c1ccccc1 | inactive
43 | O=C(O)C1CCC(NSc2ccccc2[N+](=O)[O-])CC1 (configuration not stated) | active: 15.8 µM
44 | CCOC(=O)c1cccc(NC(=O)CSc2nc3cc4ccccc4cc3[nH]2)c1 | inconclusive: 4.47 µM [inhibitor, partial curve]
45 | Cc1cccc(-c2nsc(SCC(=O)NCc3ccco3)n2)c1 | inactive
46 | C/C(=N\Nc1cccc2cccnc12)c1ccc(C)cc1 | inconclusive: 17.8 µM [inhibitor, partial curve]
47 | Cc1ccccc1C(=O)Nc1cccc(N)c1 | inactive
48 | COc1ccc(Nc2nc3ccccc3nc2NS(=O)(=O)c2ccc(Cl)cc2)cc1OC | inconclusive: 3.55 µM [inhibitor, full curve]

Row | SMILES | Potency
49 | O=C(N/N=C/c1ccccn1)c1ccc([N+](=O)[O-])cc1 | inconclusive: 10 µM [inhibitor, partial curve]
50 | Cn1c(=O)[nH]c(=O)c2c1nc(SCCN1CCOCC1)n2CCCc1ccccc1 | inactive
51 | Cc1cccc(NC(=O)CSc2nc3ccccc3c3nc(CCc4c(C)n[nH]c4C)nn23)c1 | inconclusive: 3.55 µM [inhibitor, partial curve] and inconclusive: 12.6 µM [inhibitor, partial curve, poor fit]
52 | Cn1c(=O)n(C)c2cc(NC(=O)c3cc4ccccc4o3)ccc21 | inconclusive: 4.47 µM [inhibitor, full curve]
53 | COc1ccc(-c2nnc(SCc3nc4ccccc4c(=O)[nH]3)o2)cc1 | inconclusive: 39.8 µM [inhibitor, single point]
54 | O=C1OC(c2ccc(F)cc2)=C/C1=C\c1ccc([N+](=O)[O-])o1 | active: 15.8 µM
55 | COc1ccc(SC[C@H](Cc2ccccc2)N2CCN(CCc3ccccc3)CCC2=O)cc1 | inconclusive: 35.5 µM [inhibitor, single point]
56 | CC(C)CNC(=O)c1ccccc1-c1ccccc1C(=O)O | inactive
57 | COC(=O)c1sccc1N/N=C/c1cccc(OC)c1O | inactive
58 | COc1ccccc1CN1CCN(C2CCN(C(=O)Nc3ccccc3)CC2)C(=O)C1=O | inactive
59 | O=C(/C=C/c1ccc(N2CCCCC2)c([N+](=O)[O-])c1)c1ccc(S(=O)(=O)N2CCCC2)cc1 | active: 10 µM
60 | CCCn1nc(NC(=O)c2cccc(Cl)c2)c2cc3cccc(C)c3nc21 | inactive
61 | COc1ccc(-c2nc3sc(CCNC(=O)C(=O)Nc4ccc(C)c(F)c4)c(C)n3n2)cc1 | inconclusive: 20 µM [inhibitor, partial curve]
62 | CCOC(=O)Cc1csc(SCC(=O)N2CCN(c3ccc(OC)cc3)CC2)n1 | inconclusive: 28.2 µM [inhibitor, single point]
63 | COc1cc(CNc2ccc(O)cc2)cc(Br)c1OCc1ccccc1F | active: 25.1 µM
64 | CCc1ccc(OCCCC(=O)Nc2ccc(N3CCCCC3)cc2)cc1 | inconclusive: 2.51 µM [inhibitor, full curve]
65 | COc1cc(OC)cc(C(=O)Nc2ccc3c(c2)OCCO3)c1 | inconclusive: 17.8 µM [inhibitor, partial curve, poor fit]
66 | COc1cc(/C=N/NC(=O)Cn2nc([N+](=O)[O-])cc2C)cc(Br)c1OCc1ccccc1 | inconclusive: 35.5 µM [inhibitor, single point]
67 | CCOc1ccccc1Nc1nnc(-c2cc3cc(Cl)ccc3oc2=O)s1 | inconclusive: 0.891 µM [inhibitor, full curve]
68 | O=C1C(c2ccccc2)SC(=Nc2ccccc2)N1S(=O)(=O)c1ccccc1 (configuration not stated) | inactive
69 | COc1ccccc1C1C(C(=O)c2cc3ccccc3o2)=C(O)C(=O)N1CCN1CCOCC1 (configuration not stated) | inconclusive: 20 µM [inhibitor, partial curve]
70 | O=C(Nc1ccc2c(c1)OCO2)c1cnc2n(c1=O)CCS2 | inconclusive: 6.31 µM [inhibitor, partial curve, poor fit]
71 | COc1ccccc1NS(=O)(=O)c1cccc(NC(=O)c2[nH]c(C)c(C(C)=O)c2C)c1 | inactive
72 | CC(=O)C1=C(c2ccc(Cl)c(Cl)c2)N(C(C)=O)n2cnnc2S1 | active: 4.47 µM
